The values that follow come from PMC12136788.

Some of the results follow.

To fix the notation:
B1: chr10:91630394:91630495:-|CDS|ENSG00000119938|unk|FALSE|unique (ssRNA)
RNA: GGGAGUUCUACAGUCCGACGAUCCUUGGACCUUAAUGAUAUCUCCUCUGCCUUAAAACACCACGAGGAGAAAAACUUGAUUUUAGAUUUCCCUCAGCCUUCAACCGAUUACUUAAGUUUCCGGAGCCACUUUCAGAAGAACUUCAACAGAGGAUUGAGCAUCA
B2: ENSG00000026025:stop:overlap|stop_codon|ENSG00000026025|stop_codon|NA|stop_codon (ssRNA)
RNA: GGGAGUUCUACAGUCCGACGAUCUGGCCCUUGACAUUGAGAUUGCCACCUACAGGAAGCUGCUGGAAGGCGAGGAGAGCAGGUAGGGAACUCAGACUUGGAUGCGUGAACUAAUGGUGACCAUUUGUUAGGCCCUGUGCCACUCAACAGAGGAUUGAGCAUCA
B3: chr17:77216858:77216994:+|3pUTR|ENSG00000129657|unk|total|mutant (ssRNA)
RNA: GGGAGUUCUACAGUCCGACGAUCUGUUUCUACCUUCCGUACCUUGCCACUCUUUUAAAACGCUGCUGUCAUUUCCCAUUUCUCCGUACUAAUGAUUCUUUGAUUCUCCCUCUAUUAUGUCUUAAUUCACUUUCCUUCCUAAAUCAACAGAGGAUUGAGCAUCA
B4: ENSG00000149294:stop:overlap|stop_codon|ENSG00000149294|stop_codon|NA|stop_codon (ssRNA)
RNA: GGGAGUUCUACAGUCCGACGAUCCUGCAUCCUACACCUUUGUCUCAUUGCUUUUCUCUGCAGUGACUCUUCUUUUGCUCUGUUAGGAACUUGAACACAAAAAUUAAAUUUGCUUAAAAGCCCAGUUCCUAUGAAAAAGAUCAGCAACAGAGGAUUGAGCAUCA
B5: chrX:55006554:55006655:+|CDS|ENSG00000169188|unk|FALSE|unique (ssRNA)
RNA: GGGAGUUCUACAGUCCGACGAUCAGGGCGCAAGUGGAUGGACAGCUUGCUCAGUAACUUGGGGUGCCAGUCUGCCUCUCAUGUAGGGCCCUUCAUCGAUAGCUACCGCUGCUUCCAACCAAAGCAGGAGGGGGCCUUCACCUGCAACAGAGGAUUGAGCAUCA
B6: ENSG00000198589:be:win_4651|CDS|ENSG00000198589|bound_else_gene|NA|bound_elsewhere_windowed (ssRNA)
RNA: GGGAGUUCUACAGUCCGACGAUCAUUUUGGAACCCCAAAAUGAAAGGCAUAGCCAGUCAUGUACAGAAACUGGCAGUGAAAAUGAGAAUGUAUCACUCUCUGAAAUCACACCAGCAGCAUUCAGCACUUUAACUACGGCAUCACAACAGAGGAUUGAGCAUCA
B7: chr16:50751694:50751795:+|CDS|ENSG00000083799|unk|FALSE|unique (ssRNA)
RNA: GGGAGUUCUACAGUCCGACGAUCGCUUUUUCAGUGUGAUGAAGAUUGUGGCGUGUUUGUUGCAUUGGACAAGCUAGAACUCAUAGAAGAUGAUGACACUGCAUUGGAAAGUGAUUACGCAGGUCCUGGGGACACAAUGCAGGUCAACAGAGGAUUGAGCAUCA
B8: chr13:19825080:19825183:-|CDS|ENSG00000132950|unk|total|mutant (ssRNA)
RNA: GGGAGUUCUACAGUCCGACGAUCUUUCCGAGAAGAAAAUGAGAAACAAUUAUAUGGAUCGUCAAAUACACUUUUGAAAAAAACCGAGGGAAUCCCAGAAAAAAAGGAAAAGACUUCACAGCUACAGCUUUCAGCCGAAUGUGGCAACAGAGGAUUGAGCAUCA
B9: chr3:124966548:124966651:-|3pUTR|ENSG00000173706|unk|total|mutant (ssRNA)
RNA: GGGAGUUCUACAGUCCGACGAUCAGGAAGAAUGCAAAGUUCAGUAUUUCAAUACUUUGUAUUUUACUUGAAAUUACCCUCCGCCGCAUCUUUUUUUUCCUGUCUGAAAGCUUUUGUGUGGAUGAGAAGGGACAUUUCAUUUCCCAACAGAGGAUUGAGCAUCA
B10: chr1:119913532:119913650:-|3pUTR|ENSG00000134250|msi1|total|mutant (ssRNA)
RNA: GGGAGUUCUACAGUCCGACGAUCUCAUGCUCUUGGCAAUUUCUUUGACUUUCUUUUAAGGGCAGAAGCAUUUCCGUUAAUUGCCGAUAAAGAACCGUUUUCUUCCUCUUCUCCUUGGGCCAGUUAAUAAUUGGUCCAUGGCUACAACAGAGGAUUGAGCAUCA
B11: ENSG00000107863:be:win_5351|CDS|ENSG00000107863|bound_else_gene|NA|bound_elsewhere_windowed (ssRNA)
RNA: GGGAGUUCUACAGUCCGACGAUCGGAAUCACAAAGUGAAUGCCGAGACUGCUAAAAGGAAAAGCAUCCGGCGCAGACAUACACUAGGAGGGCACAGAGAUGCUACCGAAAUCAGCGUUUUGAAUUUUUGGAAAGUGCAUGAGCCAACAGAGGAUUGAGCAUCA
B12: chr6:46858128:46859523:-|CDS|ENSG00000069122|control|control|control (ssRNA)
RNA: GGGAGUUCUACAGUCCGACGAUCAGCUGUGGUGUGGAAAUCGGUGACCAAGAACCGGACUUCUUAUAUGCGCCACACCUGCAUAGUGAAUAUCGCUGCCUCCCUUCUGGUCGCCAACACCUGGUUCAUUGUGGUCGCUGCCAUCAACAGAGGAUUGAGCAUCA
B13: ENSG00000107863:be:win_6501|3pUTR|ENSG00000107863|bound_else_gene|NA|bound_elsewhere_windowed (ssRNA)
RNA: GGGAGUUCUACAGUCCGACGAUCAUACCAGAUUUGAUAUAAUGUUGUAACAUAGGUGUGUAGAUAGUGGAUCCUGGAUGGAACUGGCUUCUUUAUCGAGAAGAAUAUAAUUCUGCAUGAGGACUUAAUGAAUCCAAACCUGUGCAACAGAGGAUUGAGCAUCA
B14: ENSG00000163902:stop:overlap|stop_codon|ENSG00000163902|stop_codon|NA|stop_codon (ssRNA)
RNA: GGGAGUUCUACAGUCCGACGAUCUCAUCUCAGGAAAGCGCCAGGAGCUGGUCACCAAGAUCGACCACAUCCUGGAUGCCCUGUAGCCCCUGCCCGCAUCCUCCAGGGGGCCCAGGGUGCCUGCACUUUGCUGUGGCAGGCAGACAACAGAGGAUUGAGCAUCA
B15: ENSG00000198589:be:win_1351|CDS|ENSG00000198589|bound_else_gene|NA|bound_elsewhere_windowed (ssRNA)
RNA: GGGAGUUCUACAGUCCGACGAUCAUGCUCCAGGAUGUAAAGGCAGUUUUAACACAUUCCAUCCAAAGUGCAAUGCAUUCAAUUGGAGGAGUACAAGUACUAUUUCCACUUUUUGCACAGUUGGAUUACAGGCAAUAUUUGUCUCAACAGAGGAUUGAGCAUCA
B16: chr22:21921976:21922077:-|3pUTR|ENSG00000100034|msi1|total|mutant (ssRNA)
RNA: GGGAGUUCUACAGUCCGACGAUCGACUGCAGUGGGCUCGGACCGGCCCAUUGAGGUUUUCCGAAAAGCAGGAUUUGUUUUGUCCGGGAGGCAUGAUUUUGGUGAGAUCUUUCUGGAAGAGUUUUCCGCCUCUUUGUGAUGCUGCAACAGAGGAUUGAGCAUCA
B17: ENSG00000198589:be:win_6701|CDS|ENSG00000198589|bound_else_gene|NA|bound_elsewhere_windowed (ssRNA)
RNA: GGGAGUUCUACAGUCCGACGAUCUGUUUCCUUGGGUCAUCACUAAUUAUGAAUCAGAAGAACUGGAUCUUACCUUGCCCACCAACUUCAGAGAUUUGUCCAAGCCAAUAGGAGCUCUGAACCCAAAAAGAGCAGCAUUCUUCGCAACAGAGGAUUGAGCAUCA
B18: chr2:45599705:45599806:-|CDS|ENSG00000068784|msi1|FALSE|unique (ssRNA)
RNA: GGGAGUUCUACAGUCCGACGAUCCUCAUAUGUUCUCUUUGUGGUUUGAUAGAAUAGCUCUGUGGCUAUUGCUGAUACUGCUUUAGAAGACAGAAAAAAUAAAUUGGAUACUGUACAGACUCUGAAAACAGCCAAGACAAAACACAACAGAGGAUUGAGCAUCA
B19: chr16:68014110:68014412:-|CDS|ENSG00000263201|control|control|control (ssRNA)
RNA: GGGAGUUCUACAGUCCGACGAUCAGGCGUGCUCCCAAGAGACGUCAAGCUACGAUAGAGUCAGAUAAAGACCUGGGUUGCUCUAGCCCCAAAAUUCGGCGCUUGGAGCAUCGUGGCAGGAGACUGACCCCACAGAAGCUUGCUCAACAGAGGAUUGAGCAUCA
B20: chr9:114598126:114598323:+|3pUTR|ENSG00000136888|msi1|FALSE|unique (ssRNA)
RNA: GGGAGUUCUACAGUCCGACGAUCUCUUUGUAACCUGUGUGAAGCAGCAGCCAGCCUUAAAGUAGUCCAUUCUUGCUAAUGGUUAGAACAGUGAAUACUAGUGGAAUUGUUUGGGCUGCUUUUAGUUUCUCUUAAUCAAAAUUACAACAGAGGAUUGAGCAUCA
B21: chr8:30843048:30843149:-|CDS|ENSG00000133863|unk|total|mutant (ssRNA)
RNA: GGGAGUUCUACAGUCCGACGAUCGGAUACUAUAAUUGCUUCCAGAAAGUCAGAUCAUCCAAUAAACGAAGCAACAAUCCGCACCGAAAAUUCUAAAUUUAACAGUAAUUUGCUUGCACACCCAGAUAUUUGUUGUAUCCGUGACAACAGAGGAUUGAGCAUCA
B22: ENSG00000162599:stop:overlap|stop_codon|ENSG00000162599|stop_codon|NA|stop_codon (ssRNA)
RNA: GGGAGUUCUACAGUCCGACGAUCUCACACAGCAUCACCGACCUGUCAUUACAGGACCCAGAGCUUUUCUUUGGAGCCUCCCAUAGAAGAGAGACUGGGAUUUAAAGGCUGAUGCCAGAAAGCAAAAGCUAACGUGAAAAGAAUCAACAGAGGAUUGAGCAUCA

The experiment deals with T1, UNK ZnF1-6 (called full-length) (human, UniProt Q9C0B0 30-357).
T1 sequence: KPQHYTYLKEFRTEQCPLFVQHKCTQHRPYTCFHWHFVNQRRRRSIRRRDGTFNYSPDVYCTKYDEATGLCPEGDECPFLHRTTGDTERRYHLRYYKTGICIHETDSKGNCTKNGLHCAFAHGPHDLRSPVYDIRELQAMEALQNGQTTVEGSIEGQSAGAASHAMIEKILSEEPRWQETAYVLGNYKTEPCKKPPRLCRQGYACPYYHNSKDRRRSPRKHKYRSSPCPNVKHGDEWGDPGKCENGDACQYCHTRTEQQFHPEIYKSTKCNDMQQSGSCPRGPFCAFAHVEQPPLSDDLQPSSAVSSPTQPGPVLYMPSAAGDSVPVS
Put plainly: nsRBNS (natural sequence RNA bind-n-seq); RBNS binding buffer (assumed for nsRBNS): 25 mM Tris pH 7.5, 150 mM KCl, 3 mM MgCl2, 0.01% Triton X-100, 500 ug/ml BSA, 20 U/ml SUPERase-In, 4 C; UNK is unkempt and MSI1 is Musashi-1; names of the RNAs are library labels; protein concentration not given here; high values mean tight binding.
The molecule B1 came in with a binding signal of 0.264 enrichment R. B2 returned a binding signal of 0.962 enrichment R. The same measure for B3: 1.58 enrichment R; for B4: 1.32 enrichment R; for B5: 0.87 enrichment R. For the molecule B6, the binding signal turned out to be 0.343 enrichment R. The same measure for B7: 1.38 enrichment R; for B8: 0.619 enrichment R; for B9: 0.473 enrichment R. The same measure for B10: 0.271 enrichment R; for B11: 0.531 enrichment R. The same measure for B12: 0.665 enrichment R; for B13: 0.289 enrichment R; for B14: 0.875 enrichment R. For the molecule B15, the binding signal amounted to 0.257 enrichment R. Consider B16, for which the binding signal was 0.611 enrichment R.

For B17, the binding signal was 0.462 enrichment R. Regarding B18, the binding signal came out at 0.357 enrichment R.

B19 showed a binding signal of 0.611 enrichment R.

Molecule B20 yielded a binding signal of 1.36 enrichment R.

Take B21: the binding signal was 0.47 enrichment R. Take B22: the binding signal was found to be 1.15 enrichment R.
